# Assay results as given in PubChem BioAssay AID488969 (Vanderbilt High Throughput Screening Facility, 2010).
# Over roughly 110,000 compounds, “z-score” has its median near -0.1; the highest 2% begin near 2. This is one part of the list. Residues, ends and D or L forms follow the SMILES beside them. *: point of attachment. Boc = CC(C)(C)OC(=O)*; OBn = c1ccc(CO*)cc1
# Biological target: Metabotropic glutamate receptor 8 (Rattus norvegicus) (UniProt P70579)
# Assay: mGluR8 Gi/Go-coupled signaling modulation – cell-based, rat, thallium flux, HTS, primary screen (AID 488969)
# Settings: HEK293 rat mGluR8, GIRK (G protein-gated inwardly rectifying potassium channel) thallium flux, FluoZin2; at 10 µM; stronger effect = higher value; submaximal glutamate (EC20) added with thallium
# UniProt P70579, sequence (P70579 whole entry, looked up): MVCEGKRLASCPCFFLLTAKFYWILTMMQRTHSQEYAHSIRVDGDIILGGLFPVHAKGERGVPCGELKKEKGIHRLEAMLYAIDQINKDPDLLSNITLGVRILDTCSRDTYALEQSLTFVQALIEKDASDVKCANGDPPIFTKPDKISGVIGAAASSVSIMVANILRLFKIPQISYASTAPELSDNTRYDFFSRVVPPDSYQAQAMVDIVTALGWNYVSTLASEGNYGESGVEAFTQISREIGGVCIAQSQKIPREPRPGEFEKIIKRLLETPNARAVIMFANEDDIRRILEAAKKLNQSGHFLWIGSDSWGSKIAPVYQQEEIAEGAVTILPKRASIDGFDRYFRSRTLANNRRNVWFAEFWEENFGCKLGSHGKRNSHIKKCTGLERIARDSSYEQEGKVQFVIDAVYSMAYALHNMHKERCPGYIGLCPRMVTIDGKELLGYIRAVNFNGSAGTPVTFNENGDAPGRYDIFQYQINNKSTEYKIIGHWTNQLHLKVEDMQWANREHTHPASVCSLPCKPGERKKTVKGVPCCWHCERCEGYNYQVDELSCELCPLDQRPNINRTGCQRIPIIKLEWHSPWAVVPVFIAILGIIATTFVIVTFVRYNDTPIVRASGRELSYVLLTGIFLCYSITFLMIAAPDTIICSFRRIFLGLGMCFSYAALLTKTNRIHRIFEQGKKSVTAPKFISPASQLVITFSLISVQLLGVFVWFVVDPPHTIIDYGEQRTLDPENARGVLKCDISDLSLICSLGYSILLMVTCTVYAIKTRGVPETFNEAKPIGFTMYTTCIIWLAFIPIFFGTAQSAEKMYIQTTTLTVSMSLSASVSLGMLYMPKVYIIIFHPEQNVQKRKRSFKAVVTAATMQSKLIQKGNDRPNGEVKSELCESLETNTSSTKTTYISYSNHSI
row,SMILES,z-score
1,CCOC(=O)c1cn2nc(-c3ccc(OCC)cc3)cc2nc1C1CCN(C(=O)OC(C)(C)C)CC1,-0.13
2,Cc1nc(SCC(=O)NCCc2ccccc2)nc(C)c1C,1.02
3,COc1cccc(N2CC(O)=C(c3ccccc3)C2=N)c1,0.0785
4,Cc1cc(NC(=O)C2C3C(=O)N(Cc4ccc(Cl)cc4)C(C(=O)NC(C)(C)C)C34C=CC2(C)O4)no1 (stereo not drawn),0.0313
5,CCCc1cc(=O)[nH]c(SCC(=O)c2cc(C)n(C3CC3)c2C)n1,-0.914
6,COC(=O)c1sc2nc(N3CCCCC3)c3c(c2c1N)CCCC3,-1.19
7,CS(=O)(=O)N(CC(=O)Nc1ccc(CC#N)cc1)c1ccc(C23CC4CC(CC(C4)C2)C3)cc1,-0.0739
8,COc1ccccc1OCCSc1nnnn1C1CCCCC1,-0.203
9,CNc1nc(C)c(C(C)=O)cc1C#N,0.0147
10,CCN1CCN(Cc2c(O)ccc3c(=O)c(-c4ccc(OC)c(OC)c4)c(C)oc23)CC1,-0.348
11,O=C(CCCNS(=O)(=O)c1cccc2nsnc12)NCc1ccc(Cl)cc1,-5.78e-05
12,CCc1ccc(S(=O)(=O)/N=C2/C=C(Sc3ncn[nH]3)C(=O)c3ccccc32)cc1,0.072
13,CCCCCCC(=O)Nc1nc(C)c(-c2csc(Nc3ccccc3OC)n2)s1,0.116
14,Cc1c(Cl)cccc1N1C(=O)C(N2C(=O)c3cccc([N+](=O)[O-])c3C2=O)C1c1cccs1 (stereo not drawn),0.18
15,COc1ccc(C2=NN3C(=O)c4c(ccc(OC)c4OC)C3C2)cc1 (stereo not drawn),-0.542
16,Cc1ccc(NC(=O)CCSc2nnc(-c3ccco3)o2)cc1,-2.1
17,Cc1ccc2oc(=O)c3cnn(CC(=O)NCCc4ccsc4)c3c2c1,-1.41
18,CC(C)(C)OC(=O)NCC(=O)NCC(=O)OCc1ccccc1 (Boc-Gly-Gly-OBn),-0.223
19,Cc1ccccc1NC(=O)CSCc1nc(N)nc(Nc2ccccc2C)n1,-0.0832
20,O=C(CN1CCN(Cc2ccc3c(c2)OCO3)CC1)N1CCc2[nH]c3ccc(F)cc3c2C1,1.15
21,N#CCCNC(=O)Cn1c(COc2ccc(Cl)cc2)nc2ccccc21,-0.257
22,COc1ccc(N2CC(NC(=O)NCC(C)C)CC2=O)cc1 (stereo not drawn),-0.399
23,CCCc1cc(=O)[nH]c(Nc2ccc(OC)c(Cl)c2)n1,-0.227

row,SMILES,z-score
1,c1ccc(C[n+]2cccc(-c3ccccc3)c2)cc1,-0.371
2,COc1nc(N)c(S(=O)(=O)c2ccccc2C)cc1C#N,-0.197
3,CCN(CC)c1ccc(C=Nc2ccc(C)cc2)c(O)c1,-0.0617
4,COc1ccc(/C=C/C(=O)NCCc2ccc(S(N)(=O)=O)cc2)cc1,-0.28
5,COc1ccc(S(=O)(=O)Nc2cc3c(C(C)=O)c(C)oc3c3ccccc23)cc1,-0.384
6,O=C(NC1CCCc2ccccc21)c1ccc(=O)[nH]c1 (stereo not drawn),0.896
7,Cc1cccc(CN2CCN(C(=O)CCl)CC2)c1,-0.0016
8,CC(C)N(CC#CCC(O)(c1ccccc1)c1ccccc1)C(C)C,0.092
9,COc1ccc(NC(=O)C2C3CCC(C3)C2C(=O)O)cc1OC (stereo not drawn),-0.453
10,Cc1cccc(-c2cc3nc(C)cc(NCCCn4ccnc4)n3n2)c1,-0.0482
11,CCOC(=O)c1c(C)nc(C)c(C(=O)OCC)c1-c1ccc(Br)cc1,-0.445
12,COc1ccc(-c2c(C)oc3ccc(C)cc23)cc1,-0.0455
13,Cc1ccc(CC(=O)N2CCN(c3ccccn3)CC2)cc1,0.0296
14,Nc1nc(CN2CCc3ccccc3C2)nc(Nc2ccccc2)n1,-0.327
15,Cc1cc(C(=O)NCCN2CCCCC2C)n(-c2ccccc2)n1 (stereo not drawn),-0.438
16,CC1C(=NO)C(C)C(c2ccccc2)NC1c1ccccc1 (stereo not drawn),-0.0154
17,COc1ccc(-c2nc3ccccc3n2Cc2ccc(C)cc2)cc1,-0.405
18,CCOC(=O)N/N=C/c1ccc(C)o1,-0.228
19,Cn1c(=O)[nH]c(=O)c2c1nc1n2CCN1Cc1ccccc1,-0.0704
20,CCOc1cc(C2c3c(oc4cc(C)c(Cl)cc4c3=O)C(=O)N2Cc2ccco2)ccc1O (stereo not drawn),-0.525
21,CCCCCn1c(N)c(-c2nc3ccccc3o2)c2c([N+](=O)[O-])nn(C)c(=O)c21,0.0272
22,c1ccc(-c2noc(-c3ccco3)n2)nc1,-0.129
23,CCOC(=O)c1c(C)c(C(=O)NCc2ccco2)c(C)n1Cc1ccccc1,-0.988

row,SMILES,z-score
1,Cc1cc(-n2nc(C)cc2C)nc(NS(=O)(=O)c2ccccc2Cl)n1,1.39
2,Cc1ccc(C)c(NC(=O)CSc2nnc(-c3ccccc3)o2)c1,-0.153
3,O=C1NC(Cc2c[nH]c3ccccc23)C(=O)N1CCOc1ccccc1 (stereo not drawn),-0.0736
4,C/C=C/c1ccc(OCCOc2ccc(C=O)cc2OC)c(OC)c1,-0.0507
5,CCOc1ccc(NC(=O)C(c2ccccn2)N(C(=O)CCl)c2ccc(OC)cc2)cc1 (stereo not drawn),0.0198
6,CNC(=O)COC(=O)c1ccc([N+](=O)[O-])cc1Cl,-0.213
7,O=C(CCC1COc2ccccc2O1)NCC1COc2ccccc2O1 (stereo not drawn),0.357
8,CCOc1cc(C(=O)NCCCn2ccnc2)cc(OCC)c1OCC,-0.00695
9,CC(C)NC(=O)COC(=O)c1ccc(NS(=O)(=O)c2ccc3c(c2)OCCO3)cc1,-0.352
10,CCOc1cc(/C=N/NC(=O)CSc2nncn2C)ccc1OCc1cccc(C)c1,0.0457
11,Cc1cc(-n2c(C)cc(C(=O)CSc3nc4ccccc4c(=O)n3Cc3ccco3)c2C)no1,-0.119
12,CCOc1ccccc1NC(=O)C(OC(=O)c1ccccc1NS(=O)(=O)c1cccs1)c1ccccc1 (stereo not drawn),-0.417
13,CCC1(C)Cc2c(sc3nc(SC)nc(NCCN(C)C)c23)CO1 (stereo not drawn),0.0651
14,O=C(Nc1ccc(Cl)c(Cl)c1)c1ccc(Cn2cc(Cl)cn2)cc1,-0.0902
15,Cn1nccc1C(=O)Nc1ccn(C23CC4CC(CC(C4)C2)C3)n1,-0.275
16,Cc1ccc(N=Cc2cc(C)n(C3CCCC3)c2C)cc1,0.457
17,Cc1cc(O)c(C(=O)c2ccccc2C(=O)O)cc1C,0.613
18,Cc1[nH]c(=O)[nH]c(=O)c1S(=O)(=O)N1CCCC(C(=O)NCc2ccco2)C1 (stereo not drawn),-0.108
19,COc1ccc(S(=O)(=O)N2CCN(C(=O)c3c(-c4ccccc4)noc3C)CC2)cc1,0.298
20,Cc1[nH]n(-c2ccccc2)c(=O)c1C1(C(F)(F)F)C(=O)N(c2ccccc2)C2=C1C(=O)CC(C)(C)C2 (stereo not drawn),0.785
21,O=S(=O)(Nc1ccc(Cc2ccncc2)cc1)N1CCCC1,0.663
22,COc1ccc(N=C2S/C(=C\c3cc(C)n(C)c3C)C(=O)N2C)cc1,0.0241
